Laboratory results reported in PubChem BioAssay AID2675 (National Center for Advancing Translational Sciences (NCATS), 2010).
Screen size: about 280,000 compounds; about 100 (0.036%) were called active. The shares of active, inactive and inconclusive entries below differ from those in the screen. The call rests on the fitted dose curve; in most records, active means well fitted inhibition curve with a large enough effect in the signal ratio, with a control signal flat (not every such curve was filed as active); inconclusive means small, poorly fitted or top-dose-only effect, or effect the other way, or a change in a side signal; inactive means no such curve, though single readings can be large or run the other way; the % refers to the signal ratio. A potency beside an inconclusive call is a rough fit, not a confirmed value. A note “side channel” means that the fit belongs to a control or component signal, not to the main read-out.
On the % scale 0 is the no-effect control and ±100 the full control effect; potency means the concentration at half of the fitted maximal effect; tags describe the fitted curve by direction and shape or compound fluorescence and quenching.

Each compound was assayed against Muscleblind-like protein 1 (Homo sapiens) (UniProt Q9NR56) (assay: qHTS Assay for Inhibitors of MBNL1-poly(CUG) RNA binding). Conditions: TR-FRET MBNL1-His/biotin-(CUG)12 binding, 665/545 ratio; activity change, negative = inhibition: at 57.5 µM (top of the series).
Sequence of UniProt Q9NR56 (Q9NR56 whole entry, looked up): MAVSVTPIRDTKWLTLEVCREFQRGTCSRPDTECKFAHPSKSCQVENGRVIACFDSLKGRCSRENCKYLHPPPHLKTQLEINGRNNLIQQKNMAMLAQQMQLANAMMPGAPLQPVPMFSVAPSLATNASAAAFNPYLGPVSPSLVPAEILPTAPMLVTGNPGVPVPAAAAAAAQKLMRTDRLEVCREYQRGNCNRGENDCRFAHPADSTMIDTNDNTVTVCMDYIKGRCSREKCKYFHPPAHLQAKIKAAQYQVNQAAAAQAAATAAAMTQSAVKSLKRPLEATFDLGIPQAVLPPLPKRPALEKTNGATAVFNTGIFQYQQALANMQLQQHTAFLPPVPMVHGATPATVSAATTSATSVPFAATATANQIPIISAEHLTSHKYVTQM
In short: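 MBNL1-His + Biotin-(CUG)12, cpd titration 92 nM–58 uM; Tb anti-His Ab 0.055 ng/ul, SA-XL665 5 nM (final); 60 min RT; ratiometric 665/545 nm, Ex 340 nm; normalized to buffer and full-complex controls.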
For `COc1cc(/C=C2\SC(=S)N(CCC(=O)Nc3ccc(O)cc3)C2=O)cc(OC)c1OC`, the Potency was inconclusive: 79.4 µM [inhibitor, single point].
With `N#C/C(=C/c1ccc(-c2ccccc2[N+](=O)[O-])o1)C(=O)NCCN1CCCCC1` the Potency was inconclusive: 12.6 µM [quencher, side channel, partial curve].
For `CCOC(=O)C(=O)/C(=C\N(C)C)c1onc(-c2c(Cl)cccc2Cl)c1C(=O)OC`, the Potency was inconclusive: 39.8 µM [quencher, side channel, single point].
`N/C(=N\N=C\c1ccc2c(c1)OCO2)c1nonc1N` was tested, and the Potency was inconclusive: 10 µM [quencher, side channel, partial curve].
`Cc1nnc2sc(SCC(=O)Nc3ccc(Cl)cc3)nn2c1=O` was tested, and the “activity change, negative = inhibition” value was inactive: 11.8%.
With `COc1ccc(CCNC(=O)CSc2nnc3ccc(-c4cccnc4)nn23)cc1OC` the Potency was inconclusive: 11.2 µM [quencher, side channel, partial curve].
For `COc1cccc(-c2cn3nc4c(nc3n2)CCCC4)c1`, the Potency was inconclusive: 14.1 µM [quencher, partial curve].
With `Cc1sc(NC(=O)c2ccco2)c(C(c2ccccc2)N2CCC(C)CC2)c1C` (stereo unspecified) the “activity change, negative = inhibition” value was inactive: 9.03%.
`CCN1CCCC(NC(=O)c2cc([N+](=O)[O-])ccc2OC)C1` (stereo unspecified) was tested, and the Potency was inconclusive: 10 µM [quencher, side channel, partial curve].
With `O=C(Nc1cccc(-c2nnn(CC(=O)N3CCc4ccccc4C3)n2)c1)C1CCC1` the “activity change, negative = inhibition” value was inactive: -2.1%.
In the case of `COc1ccc(CCNC(=O)c2ccc(CN3CCC(Cc4ccccc4)CC3)cc2)cc1OC`, the Potency is reported as inconclusive: 200 µM [inhibitor, partial curve].
In the case of `NS(=O)(=O)c1ccc(CNC(=O)c2ccc(Cl)c([N+](=O)[O-])c2)cc1`, the Potency is reported as inconclusive: 14.1 µM [quencher, side channel, partial curve].
In the case of `CN(C)S(=O)(=O)c1cccc(NC(=O)COC(=O)/C=C/c2ccc([N+](=O)[O-])cc2)c1`, the Potency is reported as inconclusive: 28.2 µM [quencher, side channel, partial curve].
For `O=C(O)CC/C(=N\Nc1ccc(S(=O)(=O)N2CCCC2)cc1[N+](=O)[O-])c1cccs1`, the Potency was inconclusive: 14.1 µM [quencher, partial curve].
In the case of `O=C(NNC(=O)C1COc2ccccc2O1)c1cccc([N+](=O)[O-])c1` (stereo unspecified), the Potency is reported as inconclusive: 14.1 µM [quencher, side channel, partial curve].
With `O=C(O)Cn1cc(/C=N/Nc2ccc([N+](=O)[O-])cn2)c2ccccc21` the Potency was inconclusive: 12.6 µM [quencher, side channel, partial curve].
For `O=[N+]([O-])c1ccc(N2CCCCC2)nc1N1CCCCC1`, the Potency was inconclusive: 20 µM [quencher, single point].
In the case of `CCCC1OC23CCCCC2C(C#N)(C#N)C1(C#N)C(=N)O3` (stereo unspecified), the Potency is reported as inconclusive: 17.8 µM [quencher, side channel, partial curve].
In the case of `Cc1noc(C)c1C(=O)OCC(=O)Nc1ccccc1C(=O)NC(C)c1ccccc1` (stereo unspecified), the Potency is reported as inconclusive: 39.8 µM [quencher, side channel, single point].
In the case of `Cc1cc(C)n2nc(C(=O)N/N=C/c3ccc(O)cc3)nc2n1`, the Potency is reported as inconclusive: 14.1 µM [quencher, side channel, partial curve].
`COc1cc([N+](=O)[O-])cc(/C=N/NC(=O)c2cc(C)nc3ccccc23)c1O` was tested, and the Potency was inconclusive: 31.6 µM [quencher, side channel, single point].
For `Cn1c(N/N=C\c2cccc(O)c2)cc(=O)n(C)c1=O`, the Potency was inconclusive: 20 µM [quencher, side channel, single point].
For `O=C(c1cc2nc(-c3ccccc3)cc(-c3ccccc3)n2n1)N1CCCC1`, the Potency was inconclusive: 10 µM [quencher, side channel, partial curve, poor fit].
For `O=C(COc1ccc([N+](=O)[O-])cc1Cl)N1CCOCC1`, the Potency was inconclusive: 5.01 µM [quencher, side channel, partial curve].
With `COc1ccc(/C=C2\N=C(c3ccccc3Cl)NC2=O)cc1` the Potency was inconclusive: 10 µM [quencher, side channel, partial curve].
In the case of `C/C(=N\Nc1ccc([N+](=O)[O-])cc1[N+](=O)[O-])c1ccc(-n2nncc2C(C)(C)C)cc1`, the Potency is reported as inconclusive: 10 µM [quencher, side channel, partial curve].
With `CCSc1nnc2c(n1)[nH]c1c(C)cccc12` the Potency was inconclusive: 12.6 µM [quencher, side channel, partial curve].
In the case of `COc1ccc(N=Cc2cccc(C)c2O)cc1Cl`, the Potency is reported as inconclusive: 0.398 µM [fluorescent, side channel, partial curve].
In the case of `COc1ccc(-n2nc(C(=O)NCC(=O)NCCCN3CCOCC3)c3ccccc3c2=O)cc1Cl`, the Potency is reported as inconclusive: 20 µM [quencher, side channel, partial curve].
With `Nc1nonc1-n1nnc(C(=O)N/N=C/c2ccccn2)c1-c1ccccc1` the Potency was inconclusive: 31.6 µM [quencher, side channel, single point].
`COCCCNC(=O)/C(C#N)=C/c1c(N2CCN(c3ccccc3)CC2)nc2ccccn2c1=O` was tested, and the Potency was inconclusive: 14.1 µM [quencher, side channel, partial curve].
`O=C(C1CCN(S(=O)(=O)c2cccc([N+](=O)[O-])c2)CC1)N1CCOCC1` was tested, and the Potency was inconclusive: 14.1 µM [quencher, partial curve].
With `CCNc1nc(NCC)nc(OCCOC(C)=O)n1` the Potency was inconclusive: 1.12 µM [fluorescent, side channel, full curve].
`N/C(=N\OC(=O)C1CC1)c1ccc([N+](=O)[O-])s1` was tested, and the Potency was inconclusive: 8.91 µM [quencher, side channel, partial curve].
With `Cc1ccc(C(=O)NCCc2c[nH]c3ccccc23)s1` the “activity change, negative = inhibition” value was inactive: 1.77%.
For `O=C(Nc1cc2c(oc1=O)CCCC2=O)c1cccc(Cl)c1`, the Potency was inconclusive: 12.6 µM [quencher, side channel, partial curve].
